Experimental data from PubChem BioAssay AID360 (National Center for Advancing Translational Sciences (NCATS), 2006).
In all, about 48,000 compounds went through this assay and about 550 (1.1%) were called active. Not shown: some 4% with an inconclusive outcome. No stated cut-off is given here; in the data, active means potency below about 15 µM; inconclusive means mostly about 16 µM to 33 µM; inactive means weaker than that. The list shows a part of the results.

target: Lysosomal acid glucosylceramidase (Homo sapiens) (UniProt P04062); assay: Glucocerebrosidase; settings: purified enzyme, resorufin glucoside fluorescence (screen aimed at inhibitors), 20 min;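 further: the screen sought inhibitors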
How it was run: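 Compounds titrated against 0.2 nM normal enzyme, 30 uM resorufin beta-D-glucopyranoside substrate, citrate/phosphate buffer with taurocholate and tween-20, pH 5.9. Reaction ran 20 min at room temperature; fluorescence (Ex 548/Em 600) gave AC50.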
Potency means the concentration at half of the fitted maximal effect.

Sequence of UniProt P04062 (P04062 whole entry, looked up): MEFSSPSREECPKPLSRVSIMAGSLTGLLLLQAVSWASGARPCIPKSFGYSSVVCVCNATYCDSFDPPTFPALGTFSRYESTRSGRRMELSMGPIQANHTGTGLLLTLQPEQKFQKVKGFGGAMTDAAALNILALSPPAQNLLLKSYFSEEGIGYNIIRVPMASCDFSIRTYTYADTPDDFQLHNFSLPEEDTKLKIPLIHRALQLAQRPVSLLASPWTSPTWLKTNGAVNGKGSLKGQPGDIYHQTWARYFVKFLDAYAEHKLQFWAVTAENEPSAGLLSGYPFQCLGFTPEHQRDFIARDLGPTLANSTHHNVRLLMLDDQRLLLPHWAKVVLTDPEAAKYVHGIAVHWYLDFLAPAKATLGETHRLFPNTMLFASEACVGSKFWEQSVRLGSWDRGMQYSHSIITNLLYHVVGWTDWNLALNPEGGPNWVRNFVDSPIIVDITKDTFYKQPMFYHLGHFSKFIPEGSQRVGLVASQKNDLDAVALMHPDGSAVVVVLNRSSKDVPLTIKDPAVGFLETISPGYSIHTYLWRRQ

Potency, inactive:
CC(=O)c1cccc(NC(=O)c2cc(-c3ccc(F)cc3)on2)c1 > 76.9 µM
COCCn1nnnc1C(c1cccc(OC)c1OC)N1CCN(C2CCCCC2)CC1 (centres undefined) > 76.9 µM
CC1CCCC(C(=O)OCc2ccccc2)N1 (centres undefined) > 76.9 µM
Cc1onc(-c2ccccc2Cl)c1C(=O)OCC(=O)c1ccc2c(c1)OCCO2 > 76.9 µM
CCN(CC(=O)N1CCN(C)CC1)S(=O)(=O)c1ccc(Cl)cc1 > 76.9 µM
CC1CN(Cc2nc3c(c(=O)n(C)c(=O)n3C)n2CC(=O)c2ccccc2)CC(C)O1 (centres undefined) > 76.9 µM
CCS(=O)(=O)N1CCC(C(=O)N2CCc3ccccc3C2)CC1 > 76.9 µM
Cc1ccc(C(=O)Nc2ccc3c(c2)OCO3)cc1S(=O)(=O)N1CCCC1 > 76.9 µM
Cc1nc2ccccc2c(=O)n1/N=C/c1ccccn1 > 76.9 µM
Cc1cc(C)c2ccc(C)[n+]([O-])c2c1O > 76.9 µM
CCOC(=O)c1c(C#N)c(SCC(=O)Nc2ccc(OC)cc2)nc2c1CN(CC)CC2 > 76.9 µM
CCC(C)(C)NC(=O)C(c1cccn1C)N(C(=O)Cn1nnc2ccccc21)c1ccc(OC)cc1 (centres undefined) > 76.9 µM
COCCn1c(SCC#N)nnc1-c1ccccc1O > 76.9 µM
Cc1cc(C)n2nc(C(=O)OCCOc3ccc(Br)cc3)nc2n1 > 76.9 µM
O=C1CCCC2=C1C(O)(C(F)(F)F)C(=O)N2Cc1ccccc1 (centres undefined) > 76.9 µM
CCC(C)(C(=O)NC1CCCC1)N(Cc1cccs1)C(C)=O (centres undefined) > 76.9 µM
COc1ccc(CCNCc2csc3nc4ccccc4n23)cc1OC > 76.9 µM
CC(C)OCCCNc1ncc2c(n1)CC(c1ccc(N(C)C)cc1)CC2=O (centres undefined) > 76.9 µM
CCn1cc(C(=O)NCc2ccco2)c(=O)c2cc(S(=O)(=O)N3CC(C)CC(C)C3)ccc21 (centres undefined) > 76.9 µM
Cc1ccc(S(=O)(=O)N(C)c2ccc(NS(C)(=O)=O)cc2)cc1 > 76.9 µM
CN(C)S(=O)(=O)N1CCN(C(=O)N(c2ccccc2)c2ccccc2)CC1 > 76.9 µM
COc1cc(C2C3C(=O)N(c4ccccc4)C(=O)C3ON2c2ccccc2)cc(OC)c1OC (centres undefined) > 76.9 µM
Cc1cc(C)nc(N2CCCC(C(=O)Nc3ccc4nc(C)c(C)nc4c3)C2)n1 (centres undefined) > 76.9 µM
c1ccc(CCNc2ncnc3c2cnn3-c2ccccc2)cc1 > 76.9 µM
Cc1ccc(S(=O)(=O)N2CCC(C(=O)N[C@H](C(=O)NCC3CCCO3)C(C)C)CC2)cc1 (some centres undefined) > 76.9 µM
O=C(CSc1nc2ccccc2n1-c1ccccc1)NCC1CCCO1 (centres undefined) > 76.9 µM
O=C(c1csc2ccccc12)N1CCN(c2ccccn2)CC1 > 76.9 µM
OCC(C#CCN1CCCCC1)NCc1ccccc1 (centres undefined) > 76.9 µM
COc1ccc(-c2nc(CSCC(=O)N3CCc4ccccc43)c(C)o2)cc1OC > 76.9 µM
CC1CN(C(=O)c2ccncc2)CC(C)O1 (centres undefined) > 76.9 µM
CCn1cc(C(=O)Nn2cnnc2)c(=O)c2ccc(C)nc21 > 76.9 µM
CCOC(=O)C1(C)NC(c2ccc(N(C)C)cc2)C2C(=O)N(c3ccc(OC)cc3)C(=O)C21 (centres undefined) > 76.9 µM
O=C(N1CCN(Cc2ccc3c(c2)OCO3)CC1)C12CC3CC(CC(C3)C1)C2 > 76.9 µM
COc1ccc(-c2noc(CSc3ccccc3)n2)cc1OC > 76.9 µM
Cc1nn(-c2ccccc2)c2[nH]c(=O)c(CNc3ccc(N4CCOCC4)cc3)cc12 > 76.9 µM
O=C(Cn1cnc2ccccc2c1=O)Nc1ccc2c(c1)OCCO2 > 76.9 µM
Cc1cc(C)c2c(n1)nn1c(NCCCN(C)C)cc(C)nc21 > 76.9 µM
O=C(Nc1cccc(-n2cnnn2)c1)c1ccco1 > 76.9 µM
Clc1ccc(OCCn2ccnc2)c2ccccc12 > 76.9 µM
Cc1ccc(C(C(=O)NC2CCCC2)N(C(=O)c2csnn2)C2CCCC2)o1 (centres undefined) > 76.9 µM
O=C(Nc1nc2c(s1)CCCC2)c1cc2n(n1)C(C(F)(F)F)CC(C1CC1)N2 (centres undefined) > 76.9 µM
O=C(Nc1nnc(-c2ccccc2Cl)o1)c1ccc(S(=O)(=O)N2CCCCCC2)cc1 > 76.9 µM
CCOC(=O)CSc1nc2ccccc2c(=O)n1CCCCCC(=O)NCc1ccco1 > 76.9 µM
O=C(CSc1n[nH]c(-c2cccnc2)n1)Nc1ccnc2ccccc12 > 76.9 µM
CC(=O)c1c(C)nn(CC(O)Cn2c3c(c4cc(C)ccc42)CCCC3=O)c1C (centres undefined) > 76.9 µM
C/C(CC(O)(/C=N/O)c1ccccc1)=N\O (centres undefined) > 76.9 µM
COC(=O)C(C)Sc1nc(-c2ccc(OC)cc2)nc2c1c(=O)n(C)c(=O)n2C (centres undefined) > 76.9 µM
O=c1c2ccccc2nnn1CSc1nnc(-c2cccc(S(=O)(=O)N3CCCCC3)c2)o1 > 76.9 µM
CCOC(=O)c1ccc(CNC(=O)CSc2nnnn2-c2ccc(Cl)cc2)o1 > 76.9 µM
O=C(c1cc2cc(Cl)ccc2oc1=O)N1CCOCC1 > 76.9 µM
CCCSc1nc(C)cc(=O)[nH]1 > 76.9 µM
CC1CCN(C(=O)Cn2c(=O)n(CCc3ccccc3)c(=O)c3ccccc32)CC1 > 76.9 µM
COc1ccc2nc(/N=C\N(C)C)sc2c1 > 76.9 µM
CCC(=O)N1CCc2cc(S(=O)(=O)NCCC(=O)N3CC=C(c4ccccc4)CC3)ccc21 > 76.9 µM
CCc1ccccc1N=C1SCC(=O)N1C > 76.9 µM
Cc1nn(C)c(C)c1S(=O)(=O)N(CC(=O)NCCCOC(C)C)c1ccc(C(C)C)cc1 > 76.9 µM
O=C1CC(c2ccc3c(c2)OCO3)CN1 (centres undefined) > 76.9 µM
COc1ccc(CNC(=O)NC2CCCCC2)cc1 > 76.9 µM
COc1ccc(OC)c2[nH]c(=O)c(CCNC(=O)C3CCCCC3)cc12 > 76.9 µM
CC12CCC(C(=O)NCCN3CCCCC3)(CC1=O)C2(C)C (centres undefined) > 76.9 µM
COc1ccc2nc3oc(C(=O)N4CCC(C(N)=O)CC4)cc3cc2c1 > 76.9 µM
CC(C)(C)c1ccc(C(=O)CSc2ncn[nH]2)cc1 > 76.9 µM
CCCn1c(N)c(C(=O)CSc2nc3ccccc3n2CCC#N)c(=O)n(C)c1=O > 76.9 µM
Nc1cc(N)nc(SCC(=O)Nc2ccc(Br)cc2Cl)n1 > 76.9 µM
CC(C)(C)c1ccc(SCC(N)=O)cc1 > 76.9 µM
O=C(O)CSc1nnc(-c2ccco2)o1 > 76.9 µM
c1ccc(N2CCN(c3ncnc4scc(-c5cccs5)c34)CC2)cc1 > 76.9 µM
C=CCn1cc(C(=O)NCC2CCCO2)c(=O)c2cc(S(=O)(=O)N3CCCCCC3)ccc21 (centres undefined) > 76.9 µM
CCS(=O)(=O)NCc1cn2ccsc2n1 > 76.9 µM
Cc1ccccc1-n1c(SCc2c(C)noc2C)nnc1-c1c[nH]c2ccccc12 > 76.9 µM
COCCn1c(=O)c2c(nc3n2CCN3c2ccc(C)cc2)n(C)c1=O > 76.9 µM
Cc1cc(C)c2c(=O)c3c(oc2c1)C(=O)N(CCO)C3c1cccc(O)c1 (centres undefined) > 76.9 µM
CC(=O)Nc1cc(C(=O)O)ccc1S(=O)(=O)c1ccc(Cl)cc1 > 76.9 µM
CCCCn1c(=S)[nH]c2ncccc2c1=O > 76.9 µM
C=CCN1C(c2ccccc2)=CS/C1=C(\C#N)c1nnc2n1CCCCC2 > 76.9 µM
c1ccc2c(c1)nc(N1CCOCC1)c1c3ccccc3[nH]c21 > 76.9 µM
COc1ccc(S(=O)(=O)N2CCCC(C(=O)NCc3ccncc3)C2)cc1Cl (centres undefined) > 76.9 µM
COc1ccc(CNc2cc(C)ccc2C)c(OC)c1OC > 76.9 µM
C=CCn1c(=O)/c(=C/c2cc(OC)c(OC)c(OC)c2)s/c1=C(/C#N)c1nc2ccccc2n1C > 76.9 µM
CC1(C)CC(=O)C(CC2=C(O)CC(C)(C)CC2=O)C(=O)C1 > 76.9 µM
O=C(CSc1nnc2scc(-c3ccccc3)n12)N1CCCc2ccccc21 > 76.9 µM
c1ccc(CSc2nnnn2-c2cccc3ccccc23)nc1 > 76.9 µM
COc1cccc(-n2c(SCC(N)=O)nnc2-c2ccncc2)c1 > 76.9 µM
O=C(Nc1nnc(C2CCCCC2)s1)c1ccco1 > 76.9 µM
Cc1cccc2nc(Cn3c(=O)n(CCCC(=O)NCc4ccco4)c(=O)c4ccccc43)cc(=O)n12 > 76.9 µM
COc1ccccc1C(=O)Nc1cccc(-c2cn3ccsc3n2)c1 > 76.9 µM
O=C1CC(=O)N(CCc2ccccc2)C(=O)N1CCc1ccccc1 > 76.9 µM
Cc1ccc(-n2ncc3c(=O)n(-c4ccc(C)c(C)c4)c(C)nc32)cc1 > 76.9 µM
CC(C)CN(CC(C)C)S(=O)(=O)N1CCC(C(=O)NCCN2CCOCC2)CC1
